The results in this text go back to ChEMBL document CHEMBL5606460, “ASAP - DENV-2 NS2B-NS3 protease fluorescence single point” (2024).

In all, about 2,000 compounds went through this assay and about 110 (5.5%) showed an effect of 50% or more. Some of the results follow.

The target in this test is Genome polyprotein (dengue virus type 2) (UniProt P29990).
Setting [1] is: Thailand/16681/1984, Concentration 25.0 uM, Number of replicates 1.0.

In the case of `Cc1cc(CO)c2cccc(CC(=O)Nc3ccc(C(=O)O)o3)c2n1`, the inhibition – broadly, the relative decrease from the control value, in per cent – amounted to 88.9% (Thailand/16681/1984, Concentration 49.95 uM, Number of replicates 2.0, Standard deviation 0.6719381020899052 %) and 94% (Thailand/16681/1984, Concentration 99.9 uM, Number of replicates 2.0, Standard deviation 0.0646782165500299 %).

Take `Cc1cc(CO)c2cccc(Cc3cccc(C(=O)N[C@@H](C)C(N)=O)c3)c2n1`: the inhibition was 6.57% (Thailand/16681/1984, Concentration 49.95 uM, Number of replicates 2.0, Standard deviation 0.7962665847500093 %) and 24.1% (Thailand/16681/1984, Concentration 99.9 uM, Number of replicates 2.0, Standard deviation 0.21200201975767785 %).

As for `COc1ccc(C[C@H]2c3cc(OC)c(OC)cc3CCN2C(=O)C2CCN(c3ccc(C=O)cc3)CC2)cc1OC`, the inhibition under setting [1] was 15.8%.

For `c1ccc2c(CN3CCC[C@H](c4c[nH]c5ccccc45)C3)c[nH]c2c1`, the inhibition came out at 3.26% (Thailand/16681/1984, Concentration 50.0 uM, Number of replicates 2.0, Standard deviation 0.31540779529261 %); 5.33% (Thailand/16681/1984, Concentration 100.0 uM, Number of replicates 2.0, Standard deviation 0.281265813425693 %); 8.73% (Thailand/16681/1984, Concentration 200.0 uM, Number of replicates 2.0, Standard deviation 0.5614472727328977 %).

In the case of `O=Cc1ccc(N2CCC(C(=O)N[C@H]3CC(=O)N(Cc4ccccc4)C3)CC2)cc1`, the inhibition under setting [1] is 14.5%.

In the case of `Cc1nc(C2CCN(Cc3c[nH]c4ccccc34)CC2)sc1C(=O)O`, the inhibition (Thailand/16681/1984, Concentration 49.5 uM, Number of replicates 2.0, Standard deviation 2.532196482700825 %) is -7.37%; the inhibition (Thailand/16681/1984, Concentration 99.01 uM, Number of replicates 2.0, Standard deviation 0.1962596660766768 %) was -5.26%; the inhibition (Thailand/16681/1984, Concentration 198.0 uM, Number of replicates 2.0, Standard deviation 1.7247831523377455 %) is -1.52%.

In the case of `CC(C)Nc1nc2ccc(C(=O)Nc3nnc4cccnn34)cc2[nH]1`, the inhibition runs as follows: (Thailand/16681/1984, Concentration 49.5 uM, Number of replicates 2.0, Standard deviation 0.47864102228875616 %) -2.54%; (Thailand/16681/1984, Concentration 99.01 uM, Number of replicates 2.0, Standard deviation 0.9476878624230379 %) -0.35%; (Thailand/16681/1984, Concentration 198.0 uM, Number of replicates 2.0, Standard deviation 0.5058242222917364 %) 4.68%.

As for `Cc1nn(Cc2noc(-c3ccccc3)n2)cc1C1CCNCC1`, the inhibition was determined as 0.157% (Thailand/16681/1984, Concentration 49.5 uM, Number of replicates 2.0, Standard deviation 0.8802677194228591 %); 0.972% (Thailand/16681/1984, Concentration 99.01 uM, Number of replicates 2.0, Standard deviation 0.4630249405658938 %); 3.86% (Thailand/16681/1984, Concentration 198.0 uM, Number of replicates 2.0, Standard deviation 1.7386847845568818 %).

For the molecule `Cc1cc(CO)c2cccc(Cc3cccc(C(=O)Nc4cc(O)[nH]n4)c3)c2n1`, the inhibition is, setting by setting: (Thailand/16681/1984, Concentration 49.95 uM, Number of replicates 2.0, Standard deviation 1.1139101860624252 %) 16.1%; (Thailand/16681/1984, Concentration 99.9 uM, Number of replicates 2.0, Standard deviation 0.5605490390974336 %) 35%.

`CC(C)(CO)NC(=O)c1cc(Cl)cc(CCc2ccccn2)c1`: the inhibition was -3.98% (Thailand/16681/1984, Concentration 49.5 uM, Number of replicates 2.0, Standard deviation 2.7116489971157214 %); -3.4% (Thailand/16681/1984, Concentration 99.01 uM, Number of replicates 2.0, Standard deviation 2.41618896804853 %); -2.83% (Thailand/16681/1984, Concentration 198.0 uM, Number of replicates 2.0, Standard deviation 2.838465745418212 %).

As for `O=Cc1ccc(N2CCC(C(=O)NC[C@@H]3CCCN4CCCC[C@H]34)CC2)cc1`, the inhibition under setting [1] came to 12.3%.

On to `O=Cc1ccc(N2CCC(C(=O)Nc3ccc4c(c3)C(=O)NC4=O)CC2)cc1`, for which the inhibition under setting [1] came out at 18.1%.

Turning to `COc1cc(Cc2cc(N)nc(C(F)(F)F)c2)nc(N2CCNCC2)n1`, the inhibition by setting is: (Thailand/16681/1984, Concentration 49.5 uM, Number of replicates 2.0, Standard deviation 2.297956605557041 %) -0.576%; (Thailand/16681/1984, Concentration 99.01 uM, Number of replicates 2.0, Standard deviation 2.0097364356865053 %) 1.03%; (Thailand/16681/1984, Concentration 198.0 uM, Number of replicates 2.0, Standard deviation 2.0092163014290323 %) 3.02%.

As for `O=Cc1ccc(N2CCC(C(=O)NCC[C@H](O)c3ccccc3)CC2)cc1`, the inhibition under setting [1] was 11.9%.

For the molecule `O=C(c1cc2ccccc2[nH]1)N1CC[C@H](n2cnc3ccccc32)C1`, the inhibition (Thailand/16681/1984, Concentration 49.5 uM, Number of replicates 2.0, Standard deviation 0.5333738443614924 %) was -0.39%; the inhibition (Thailand/16681/1984, Concentration 99.01 uM, Number of replicates 2.0, Standard deviation 0.023947502149101903 %) amounted to 2.52%; the inhibition (Thailand/16681/1984, Concentration 198.0 uM, Number of replicates 2.0, Standard deviation 0.0283014401876713 %) was 5.83%.

As for `CNC(=O)c1cc(Cl)ccc1NS(=O)(=O)CC1(N(C)C)CCC1`, where the note is “Thailand/16681/1984, Concentration 49.5 uM, Number of replicates 2.0, Standard deviation 0.05634696471118445 %”, the inhibition was -7.46%.

Regarding `CC(C)(CO)NC(=O)c1cc(Cl)cc(NC(=O)c2cc(S(N)(=O)=O)c[nH]2)c1`, the inhibition by setting is: (Thailand/16681/1984, Concentration 49.5 uM, Number of replicates 2.0, Standard deviation 2.8822580911886684 %) -8.12%; (Thailand/16681/1984, Concentration 99.01 uM, Number of replicates 2.0, Standard deviation 5.934645813901623 %) -7.35%; (Thailand/16681/1984, Concentration 198.0 uM, Number of replicates 2.0, Standard deviation 0.9665420443701438 %) -2.84%.

Take `c1ccc2c([C@H]3CCN(Cc4cocn4)C3)c[nH]c2c1`: the inhibition reads like this: (Thailand/16681/1984, Concentration 49.5 uM, Number of replicates 2.0, Standard deviation 2.738583973254397 %) -1.51%; (Thailand/16681/1984, Concentration 99.01 uM, Number of replicates 2.0, Standard deviation 2.748119423775471 %) -1.02%; (Thailand/16681/1984, Concentration 198.0 uM, Number of replicates 2.0, Standard deviation 3.6277657089904616 %) 0.218%.

Take `Cc1cc(CO)c2cccc(NC(=O)[C@@H]3C[C@@H](O)CN3)c2n1`: the inhibition reads like this: (Thailand/16681/1984, Concentration 49.95 uM, Number of replicates 2.0, Standard deviation 2.380826244861343 %) 16.8%; (Thailand/16681/1984, Concentration 99.9 uM, Number of replicates 2.0, Standard deviation 17.981184833005678 %) 18.7%.

Consider `OCc1cc(C2CCN(Cc3c[nH]c4ccccc34)CC2)no1`, for which the inhibition is, setting by setting: (Thailand/16681/1984, Concentration 49.5 uM, Number of replicates 2.0, Standard deviation 2.1499056849188833 %) -5.2%; (Thailand/16681/1984, Concentration 99.01 uM, Number of replicates 2.0, Standard deviation 1.6007624259654678 %) -4.89%; (Thailand/16681/1984, Concentration 198.0 uM, Number of replicates 2.0, Standard deviation 2.427993457379461 %) -2.83%.
